Measurements published in a collection of fitness landscapes (doi:10.1016/j.celrep.2020.107928).
The full ranking holds about 81,000 sequences; the median of “one-hybrid fitness for binding NBS DNA” is about -0.1, and the highest 2% start at about 0.36. The list shows a part of the results.

B1: Caulobacter ParB omega fusion; a variant is named by its letters at X, in order, B8GW30 (parent)
chain: MESVVVGEPGMSEGRRGLGRGLSALLGEVDAAPAQAPGEQLGGSREAPIEILQRNPDQPRRTFREEDLEDLSNSIREKGVLQPILVRPSPDTAGEYQIVAGERAWRAAQRAGLKTVPIMVRELDDLAVLEIGIIENVQRADLNVLEEALSYKVLMEKFERTQENIAQTIGKSXSHVANXMRLLXLPDEVQSYLVSGELTAXHARAIAAAADPVALAKQIIEGGLSVRETEALARKAPNLSAGKSKGGRPPRVKDTDTQALESDLSSVLGLDVSIDHRGSTGTLTITYATLEQLDDLCNRLTRGI

Variants of: B1
Test: one-hybrid fitness for binding NBS DNA (the Noc-binding site; scaled: cognate 1, non-cognate 0); higher = stronger binding
Conditions: with NBS DNA site
How it was run: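 Selection: bacterial one-hybrid in E. coli USO, HIS3 reporter with the site 19 bp from the promoter, 48 hours at 37°C on M9-minus-histidine plus 0.1 mM IPTG and 5 mM 3-AT. Libraries were Caulobacter ParB with four randomised specificity codons, sequenced on Illumina before and after selection. Fitness is the rescaled log change in variant-to-wild-type read ratio, anchored to the cognate and non-cognate sites.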

Point of comparison: RRGC, “one-hybrid fitness for binding NBS DNA” value 0.283. Against it:
- SWLT — lower, ≤ 0.2
- KSKV — lower, ≤ 0.2
- FPAS — lower, ≤ 0.2
- FVWR — lower, ≤ 0.2
- HSLQ — lower, ≤ 0.2
- QPSG — lower, ≤ 0.2
- VPKR — lower, ≤ 0.2
- EKCS — lower, ≤ 0.2
- PLRY — lower, ≤ 0.2
- CKWG — lower, ≤ 0.2
- TNSC — lower, ≤ 0.2
- ESLL — lower, ≤ 0.2
- NAST — lower, ≤ 0.2
- HRCV — lower, ≤ 0.2
- NNMA — lower, ≤ 0.2
- CAVD — lower, ≤ 0.2
- QLHA — lower, ≤ 0.2
- CLLW — lower, ≤ 0.2
- SDNM — lower, ≤ 0.2
- QYCA — lower, 0.242
- YFQC — lower, ≤ 0.2
- SPGC — lower, ≤ 0.2
- QIHR — higher, 0.493
- PTRR — lower, 0.227
- DNLG — lower, ≤ 0.2
- SFSQ — lower, ≤ 0.2
- PVDF — lower, ≤ 0.2
- MMRT — lower, ≤ 0.2
- NSNY — lower, ≤ 0.2
- VMHT — lower, ≤ 0.2
- WMSW — lower, ≤ 0.2
- GACS — lower, ≤ 0.2
- CHGT — lower, ≤ 0.2
- GGQG — lower, ≤ 0.2
- FLQV — lower, ≤ 0.2
- ERRY — lower, ≤ 0.2
- GRLF — lower, ≤ 0.2
- RAYV — lower, ≤ 0.2
- RRRE — lower, 0.219
- NEES — lower, ≤ 0.2
- VRHF — lower, ≤ 0.2
- VYMG — lower, ≤ 0.2
- RYVK — lower, ≤ 0.2
- RKIE — lower, ≤ 0.2
- MEPV — lower, ≤ 0.2
- DSAY — lower, ≤ 0.2
- CSIR — lower, ≤ 0.2
- GSKQ — lower, ≤ 0.2
- FDKG — lower, ≤ 0.2
- SGVR — lower, ≤ 0.2
- TCAK — lower, ≤ 0.2
- GRQQ — lower, ≤ 0.2
- MVLQ — lower, ≤ 0.2
- YRQG — lower, ≤ 0.2
- LMRC — lower, ≤ 0.2
- LQIC — lower, ≤ 0.2
- PAHP — lower, ≤ 0.2
- NPNT — lower, ≤ 0.2
- SGMV — lower, ≤ 0.2
- TCCS — lower, ≤ 0.2
- AKTS — lower, ≤ 0.2
- YLSN — lower, ≤ 0.2
- ARSR — lower, ≤ 0.2
- FDHP — lower, ≤ 0.2
- ALDF — lower, ≤ 0.2
- LNPV — lower, ≤ 0.2
- VIST — lower, ≤ 0.2
- AADG — lower, ≤ 0.2
- HHNC — lower, ≤ 0.2
- YLPG — lower, ≤ 0.2
- LFIC — lower, ≤ 0.2
- QDVG — lower, ≤ 0.2
- WKSC — lower, ≤ 0.2
- EASN — lower, ≤ 0.2
- IWAL — lower, ≤ 0.2
- MSLD — lower, ≤ 0.2
- QFTW — lower, ≤ 0.2
- INIR — lower, ≤ 0.2
- GDVS — lower, ≤ 0.2
- APQS — lower, ≤ 0.2
- DHDR — lower, ≤ 0.2
- RAGD — lower, ≤ 0.2
- DLRL — lower, ≤ 0.2
- LVAQ — lower, ≤ 0.2
- NYRT — lower, ≤ 0.2
- EYTF — lower, ≤ 0.2
- KLAA — lower, ≤ 0.2
- PFPG — lower, ≤ 0.2
- MYET — lower, ≤ 0.2
- NADY — lower, ≤ 0.2
- EQKC — lower, ≤ 0.2
- RIGI — lower, ≤ 0.2
- MAYY — lower, ≤ 0.2
- RIPI — lower, ≤ 0.2
- AQQE — lower, ≤ 0.2
- PSRY — lower, ≤ 0.2
- QASK — lower, ≤ 0.2
- LSGS — lower, ≤ 0.2
- IMKA — lower, ≤ 0.2
- CDSV — lower, ≤ 0.2
- NKHT — lower, ≤ 0.2
- VNNG — lower, ≤ 0.2
- PICV — lower, ≤ 0.2
- VPIS — lower, ≤ 0.2
- LFLV — lower, ≤ 0.2
- NVRI — lower, ≤ 0.2
- LLSR — lower, ≤ 0.2
- NSWR — lower, ≤ 0.2
- QVDL — lower, ≤ 0.2
- SYNW — lower, ≤ 0.2
- TQFC — lower, ≤ 0.2
- PKWS — lower, ≤ 0.2
- QVVF — lower, ≤ 0.2
- SKNI — lower, ≤ 0.2
- CSHF — lower, ≤ 0.2
- KTRC — lower, ≤ 0.2
- YRPN — lower, ≤ 0.2
- YYAV — lower, ≤ 0.2
- PNIW — lower, ≤ 0.2
- ALRE — lower, 0.248
- ERVA — lower, ≤ 0.2
- VDQT — lower, ≤ 0.2
- KKHR — lower, 0.258
- PLPH — lower, ≤ 0.2
- SSDM — lower, ≤ 0.2
- DYDR — lower, ≤ 0.2
- ICIN — lower, ≤ 0.2
- ICKF — lower, ≤ 0.2
- QNRK — lower, ≤ 0.2
- RAYK — lower, ≤ 0.2
- ELRA — lower, ≤ 0.2
- KHET — lower, ≤ 0.2
- RLYS — higher, 0.34
- YYGS — lower, ≤ 0.2
- DHYG — lower, ≤ 0.2
- PTHA — lower, ≤ 0.2
- GVRW — lower, ≤ 0.2
- MVDR — lower, ≤ 0.2
- QSVE — lower, ≤ 0.2
- VGKF — lower, ≤ 0.2
- AVFL — lower, ≤ 0.2
- VQAS — lower, ≤ 0.2
- HFKF — lower, ≤ 0.2
- KLFS — lower, ≤ 0.2
- SHRS — lower, ≤ 0.2
- SESD — lower, ≤ 0.2
- KAKQ — lower, ≤ 0.2
- RQKI — lower, ≤ 0.2
- VDQC — lower, ≤ 0.2
- FIGC — lower, ≤ 0.2
- ERYG — lower, ≤ 0.2
- TWIG — lower, ≤ 0.2
- KENG — lower, ≤ 0.2
- MMHT — lower, ≤ 0.2
- CPNI — lower, ≤ 0.2
- AHLS — lower, ≤ 0.2
- PTYA — lower, ≤ 0.2
- NEVS — lower, ≤ 0.2
- QKWE — lower, ≤ 0.2
- YIVG — lower, ≤ 0.2
- LSTC — lower, ≤ 0.2
- ACMR — lower, ≤ 0.2
- IVKV — lower, ≤ 0.2
- RCCM — lower, ≤ 0.2
- QDFM — lower, ≤ 0.2
- RSIV — lower, ≤ 0.2
- SWVR — lower, ≤ 0.2
- LLNC — lower, ≤ 0.2
- RICA — lower, ≤ 0.2
- NPTG — lower, ≤ 0.2
- HMYS — lower, ≤ 0.2
- QLYY — lower, ≤ 0.2
- FYTT — lower, ≤ 0.2
- AGTS — lower, ≤ 0.2
- SCQI — lower, ≤ 0.2
- RHHF — lower, ≤ 0.2
- AELV — lower, ≤ 0.2
- RMKQ — lower, 0.238
- RMQW — lower, ≤ 0.2
- SFTF — lower, ≤ 0.2
- GQRT — lower, ≤ 0.2
- AKLA — lower, ≤ 0.2
- QPNY — lower, ≤ 0.2
- LNNG — lower, ≤ 0.2
- KLTM — lower, ≤ 0.2
- CASK — lower, ≤ 0.2
- QQGD — lower, ≤ 0.2
- VHNF — lower, ≤ 0.2
- ESIL — lower, ≤ 0.2
- NIGG — lower, ≤ 0.2
- TASR — lower, ≤ 0.2
- RVIA — lower, ≤ 0.2
- GLPW — lower, ≤ 0.2
- RIAQ — lower, ≤ 0.2
- KTRT — higher, 0.44
- QQSC — lower, ≤ 0.2
- LTMG — lower, ≤ 0.2
- SYYS — lower, ≤ 0.2
- PWRS — lower, ≤ 0.2
- PFPW — lower, ≤ 0.2
- WVAL — lower, ≤ 0.2
- PNFR — lower, ≤ 0.2
- CRFR — lower, ≤ 0.2
- PMVS — lower, ≤ 0.2
- YGQY — lower, ≤ 0.2
- NMIY — lower, ≤ 0.2
- HNRD — lower, ≤ 0.2
- QCDK — lower, ≤ 0.2
- PVNE — lower, ≤ 0.2
- RCEA — lower, ≤ 0.2
- RFMD — lower, ≤ 0.2
- NTRK — lower, ≤ 0.2
- KNPK — lower, ≤ 0.2
- HAHW — lower, ≤ 0.2
- SINL — lower, ≤ 0.2
- EHDA — lower, ≤ 0.2
- QGTR — lower, ≤ 0.2
- SFPD — lower, ≤ 0.2
- MTEE — lower, ≤ 0.2
- YGAV — lower, ≤ 0.2
- QILQ — lower, ≤ 0.2
- QTQE — lower, ≤ 0.2
- DMMS — lower, ≤ 0.2
- WCNG — lower, ≤ 0.2
- QQQC — lower, ≤ 0.2
- QGRY — lower, ≤ 0.2
- QAET — lower, 0.253
- QYKV — higher, 0.372
- VSHK — lower, ≤ 0.2
- ILMS — lower, ≤ 0.2
- TRAD — lower, ≤ 0.2
- RSGD — lower, ≤ 0.2
- VTLY — lower, ≤ 0.2
- TTMM — lower, ≤ 0.2
- ANCV — lower, ≤ 0.2
- ALHF — lower, ≤ 0.2
- NKMR — lower, ≤ 0.2
- YSRI — lower, ≤ 0.2
- FSEN — lower, ≤ 0.2
- PKLI — lower, ≤ 0.2
- SEKM — lower, ≤ 0.2
- AHMR — lower, ≤ 0.2
- TRSL — lower, ≤ 0.2
- IMMI — lower, ≤ 0.2
- SQMY — lower, ≤ 0.2
- EVCR — lower, ≤ 0.2
- RPWW — lower, ≤ 0.2
- LDKG — lower, ≤ 0.2
- SGNG — lower, ≤ 0.2
- GTPS — lower, ≤ 0.2
- RNGR — lower, 0.21
- RRST — higher, 0.776
- QDPC — lower, ≤ 0.2
- LAAR — lower, ≤ 0.2
- ATPS — lower, ≤ 0.2
- HIQR — lower, ≤ 0.2
- AVWL — lower, ≤ 0.2
- HVDQ — lower, ≤ 0.2
- TGME — lower, ≤ 0.2
- PKHC — lower, ≤ 0.2
- TYLS — lower, ≤ 0.2
- QGIP — lower, ≤ 0.2
- YVTL — lower, ≤ 0.2
- PFAF — lower, ≤ 0.2
- VRLM — lower, ≤ 0.2
- RFCL — lower, ≤ 0.2
- WSLL — lower, ≤ 0.2
- IACV — lower, ≤ 0.2
- ALIF — lower, ≤ 0.2
- YLCV — lower, ≤ 0.2
- AGIC — lower, ≤ 0.2
- GHDL — lower, ≤ 0.2
- AMNC — lower, ≤ 0.2
- WLAL — lower, ≤ 0.2
- HVPL — lower, ≤ 0.2
- THNH — lower, ≤ 0.2
- QPWR — lower, ≤ 0.2
- GVMR — lower, ≤ 0.2
- MCTM — lower, ≤ 0.2
- MQPN — lower, ≤ 0.2
- NFER — lower, ≤ 0.2
- FQDS — lower, ≤ 0.2
- VSPM — lower, ≤ 0.2
- NPVL — lower, ≤ 0.2
- RADC — lower, ≤ 0.2
- CLST — lower, ≤ 0.2
- CSDG — lower, ≤ 0.2
- KKKR — higher, 0.523
- KLTA — lower, ≤ 0.2
- LNAW — lower, ≤ 0.2
- RYYK — lower, ≤ 0.2
- TVAT — lower, ≤ 0.2
- NHTR — lower, ≤ 0.2
- EKQS — lower, ≤ 0.2
- FVKH — lower, ≤ 0.2
- QAWL — lower, ≤ 0.2
- RWHS — lower, ≤ 0.2
- HQRL — lower, ≤ 0.2
- PYSV — lower, ≤ 0.2
- RYAP — lower, ≤ 0.2
- QMDA — lower, ≤ 0.2
- MRKG — lower, ≤ 0.2
- VEST — lower, ≤ 0.2
- REPC — lower, ≤ 0.2
- QETF — lower, ≤ 0.2
